Data on 87 compounds can be found in PubChem BioAssay AID463173 (ICCB-Longwood Screening Facility, Harvard Medical School, 2010).

Out of some 52,000 compounds screened, about 1,700 (3.3%) were called active. No stated cut-off is given here; in the data, active means survival mostly below about 52% (no sharp cut-off); inactive means mostly above about 56%. This is one part of the list.

This experiment has as its system Wild type. Briefly: S. aureus survival, RN4220 and DeltatarO strains – OD600, teichoic acid synthesis inhibitors, primary screen (AID 463173). The conditions noted are these: S. aureus RN4220 wild type/DeltatarO growth, OD600, 18 h, active compounds read low, screened at 18.75 µg/mL (by protocol).
In the case of `CC(=O)N(CN1C(=O)CCC1=O)c1ccc(Cl)c(Cl)c1`, the survival was inactive: 98%.

As for `COc1cc2c(-c3ccccc3O)nc3c(c(C)nn3-c3ccccc3)c2cc1OC`, the survival is inactive: 63%.

As to `O=C(CN1CCCC1)N/N=C/c1c(O)ccc2ccccc12`, the survival was inactive: 104%.

For `COc1cccc(CN2C(=O)c3ccccc3Sc3ccc(C(=O)NCCc4ccc(C)cc4)cc32)c1`, the survival is inactive: 75%.

On to `O=C(Nc1ccc(-c2nc3cc(NC(=O)c4ccccc4F)ccc3o2)cc1)c1ccccc1F`, for which the survival was inactive: 72%.

For `Cc1cccc(NC(=O)Cn2cc(C(=O)C3CCCCC3)c3ccccc32)c1C`, the survival is inactive: 61%.

On to `COc1ccccc1C(=O)N1CCCCC1CCN1CCOCC1` (configuration not stated), for which the survival was inactive: 89%.

For `N#Cc1ccccc1NC(=O)CSc1ncn[nH]1`, the survival is inactive: 152%.

On to `Cc1ccccc1CNC(=O)Cn1ccc2cc(S(=O)(=O)N3CCCCC3)ccc21`, for which the survival was inactive: 123%.

With `COc1ccccc1NC(=O)c1sc2nc(C)c(C(=O)Nc3ccc(C)cc3C)c(-c3ccc(Br)cc3)c2c1N`, the survival is inactive: 89%.

Turning to `CCOc1ccc(C(=O)c2cn(CC(=O)Nc3ccc4c(c3)OCCO4)c3ccc(OC)cc3c2=O)cc1`, the survival was inactive: 94%.

As for `CCCc1nn2c(=O)cc(COC(=O)c3cccs3)nc2s1`, the survival was inactive: 133%.

As for `Cc1ccc(CNC(=O)C(=O)NCC(c2cccnc2)N2CCN(c3ccc(F)cc3)CC2)cc1` (configuration not stated), the survival was inactive: 84%.

For `O=C(NCc1ccccc1)c1cc2sccc2n1Cc1ccc(F)cc1`, the survival was inactive: 99%.

In the case of `Cc1cccc(C(=O)Nc2ccc(C(=O)OCc3cc(=O)n4c5c(sc4n3)CCCC5)cc2)c1`, the survival is inactive: 95%.

As for `CCOc1ccc(C(=O)CSc2nc3cc(C(=O)NC4CCCC4)ccc3c(=O)n2CC2CCCO2)cc1` (configuration not stated), the survival was active: 0%.

Turning to `CC(=O)c1ccc(NC(=O)c2ccc3c(c2)nnn3C2CCCC2)cc1`, the survival was inactive: 72%.

For the compound `Cc1ccc(C)c(NC(=O)c2nc(S(C)(=O)=O)ncc2N(Cc2ccc(C(C)(C)C)cc2)Cc2ccco2)c1`, the survival is inactive: 87%.

Consider `O=C(CCc1nc2ccccc2[nH]c1=O)OCc1ccc(Cl)cc1`, for which the survival is inactive: 99%.

As to `Cc1ccn2cc(C(=O)NC3CCCCC3)nc2c1`, the survival was inactive: 99%.

Take `CN1C(=O)Cc2cc(S(=O)(=O)N3CCN(c4cccc(C(F)(F)F)c4)CC3)ccc21`: the survival is inactive: 135%.

`CCOC(=O)N1CCC(NC(=O)c2ccc3c(c2)N(Cc2cc(C)ccc2C)C(=O)c2ccccc2S3(=O)=O)CC1`: the survival is inactive: 77%.

Take `CCOc1ccc(CCn2c3c(c(=O)[nH]c2=O)C(NC(=O)c2ccccc2)(C(F)(F)F)C(=O)N3)cc1OCC` (configuration not stated): the survival is inactive: 68%.

Regarding `CCCCCn1c(=O)[nH]c2cc(C(=O)N3CCN(c4cc(Cl)ccc4C)CC3)ccc2c1=O`, the survival is inactive: 83%.

In the case of `OC1CCN(C(c2cccc(C(F)(F)F)c2)c2nnnn2Cc2ccc(F)cc2)CC1` (configuration not stated), the survival was inactive: 114%.

With `COc1ccc(NC(=O)CSc2nc3ccccc3nc2Cc2ccc(C)cc2)cc1Cl`, the survival is inactive: 54%.

As for `CCOC(=O)c1c(S(=O)(=O)NCC(=O)Nc2cc(C)ccc2OC)c(C)n(C)c1C`, the survival is inactive: 99%.

On to `CC(Sc1nnc(COc2ccccc2)n1-c1ccccc1)C(=O)O` (configuration not stated), for which the survival is inactive: 109%.

Turning to `Cc1ccc(C(=O)OCc2cc(=O)n3nc(-c4cccs4)sc3n2)cc1`, the survival was inactive: 78%.

On to `Cc1ccccc1C(=O)OCc1cc(=O)n2nc(C3CC3)sc2n1`, for which the survival was inactive: 80%.

As to `CCN(CC)c1ccc2cc(-c3nc(-c4ccc(Cl)cc4Cl)cs3)c(=O)oc2c1`, the survival is inactive: 32%.

As for `O=C(Cn1cc(SCc2ccccc2F)c2ccccc21)N1CCCCCC1`, the survival is inactive: 81%.

Take `COc1ccccc1NC(=O)Cn1c(=O)n(Cc2cccs2)c(=O)c2cccnc21`: the survival was inactive: 75%.

`CCOC(=O)c1ccc(Nc2nc3nonc3nc2Nc2cccc(C)c2C)cc1`: the survival is active: 0%.

With `CC(OC(=O)CCc1nc2ccccc2[nH]c1=O)C(=O)c1ccccc1` (configuration not stated), the survival was inactive: 108%.

For the compound `Cc1nc(-c2ccccc2)sc1-c1ccc(SCC(=O)NCc2ccccc2)nn1`, the survival is inactive: 93%.

Consider `Cc1coc2cc3oc(=O)c(CC(=O)NCc4ccccc4)c(C)c3cc12`, for which the survival is inactive: 86%.

Take `Cc1cc(NC(=O)c2ccccc2C)no1`: the survival was inactive: 107%.

In the case of `COc1cccc(-c2cnc(NCc3ccccc3Cl)n2C)c1`, the survival was inactive: 70%.

For `Cc1ccc(C(=O)Nc2ccc3oc(-c4cccnc4)nc3c2)c(Cl)c1`, the survival is inactive: 92%.

`CCOc1ccccc1NC(=O)c1cc(S(=O)(=O)NC2CCCC2)ccc1F`: the survival is inactive: 71%.

With `CC(C)(C)c1ccc(S(=O)(=O)Nc2ccc(O)c(Sc3nc4ccccc4s3)c2)cc1`, the survival is active: 3%.

On to `CC(=O)N1CCCc2cc(S(=O)(=O)N3CCCC(C(=O)Nc4ccc(C)c(C)c4)C3)ccc21` (configuration not stated), for which the survival is inactive: 91%.

Regarding `CCOc1ccc2nc(N3CCC(C(=O)Nc4c(C)cccc4C)CC3)sc2c1`, the survival was inactive: 86%.

As for `Cc1ccc(C)c(N2CCN(C(=O)c3cc4c(=O)n(Cc5cccs5)ccc4nc3C)CC2)c1`, the survival was inactive: 80%.

Regarding `Cc1ccc(S(=O)(=O)Nc2cc3c(cc2Cl)n(C)c(=O)c(=O)n3C)cc1`, the survival was inactive: 75%.

On to `O=C(Nc1cccc(F)c1)NC1(C(=O)NCc2ccco2)CCCCC1`, for which the survival was inactive: 102%.

Turning to `Cc1ccc(C)c(CN2C(=O)c3ccccc3S(=O)c3ccc(C(=O)N(C)Cc4ccccc4)cc32)c1` (configuration not stated), the survival was inactive: 96%.

With `CCCCOc1ccc(CNC(=O)c2ccc(NC(=O)N3CCSc4ncccc43)cc2)cc1`, the survival is inactive: 57%.

For the compound `Cc1ccc(-n2ncc(C(=O)N3CCC(c4ccccc4)C3)c2C2CCN(C(=O)OC(C)(C)C)CC2)cc1` (configuration not stated), the survival was inactive: 73%.

With `CCCc1nn2c(C)c(-c3ccccc3)nc2s1`, the survival is inactive: 95%.

`O=S(=O)(Nc1cccc(-c2ccc(N3CCOCC3)nn2)c1)c1ccc(F)cc1F`: the survival is inactive: 83%.

With `CN(C)c1ccc(C(C(=O)NCc2ccccc2)N(Cc2ccco2)C(=O)c2snc(C(N)=O)c2N)cc1` (configuration not stated), the survival was inactive: 119%.

Take `O=C(Nc1nc(-c2ccc(Br)cc2)ns1)c1ccccc1F`: the survival was inactive: 92%.

On to `Cc1cc(C)c2oc(C(=O)Nc3ccc(S(=O)(=O)N(C)c4ccccc4)cc3)cc(=O)c2c1`, for which the survival was inactive: 84%.

Turning to `O=c1c2c3c(sc2n(Cc2cc(=O)n4ccccc4n2)c(=O)n1-c1ccc(Cl)cc1)CCC3`, the survival is inactive: 89%.

Regarding `COC(=O)CCN(C(=O)c1c(C)oc2ncnc(N3CCOCC3)c12)c1ccccc1`, the survival was active: 0%.

Consider `Cc1cccc(N2CCN(C(=O)C3CCN(S(=O)(=O)c4ccc5c(c4)oc(=O)n5C)CC3)CC2)c1C`, for which the survival was inactive: 88%.

Regarding `O=C(/C=C/c1ccccc1)N1CCN(Cc2cc(=O)n3nc(-c4ccccc4)sc3n2)CC1`, the survival was inactive: 97%.

On to `CCC(=O)N1CCc2cc(S(=O)(=O)N(C)c3cccc(C)c3)ccc21`, for which the survival was inactive: 86%.

As for `CC(C)NC(=O)Cn1c(SCC(=O)N2CCc3ccccc32)nc2ccccc21`, the survival is inactive: 107%.

`COC(=O)CSc1nnc2n(-c3ccccc3)c(=O)c3c4c(sc3n12)COC(C(C)C)C4` (configuration not stated): the survival is inactive: 135%.

With `CCCOc1ccc(C2C(=O)N(C3CCCCCC3)CC(=O)N2CCCOCC)cc1OC` (configuration not stated), the survival is inactive: 73%.

In the case of `Cc1ccccc1NC(=O)c1sc2nc(N3CCOCC3)c3c(c2c1N)CC(C)(C)OC3`, the survival was inactive: 67%.

Consider `CCN(c1cc(C)cc(C)c1)S(=O)(=O)c1nnc(NC(=O)c2cccc(F)c2)s1`, for which the survival is inactive: 44%.

With `Cc1ccc(OCc2n[nH]c(=S)n2C2CCCCC2)cc1`, the survival is inactive: 105%.

In the case of `CCOc1ccccc1N1CC(c2nc3ccccc3n2CCOc2ccc(C(C)(C)C)cc2)CC1=O` (configuration not stated), the survival was inactive: 41%.

On to `CCOc1ccccc1N(C)C(=O)Cn1nc(Cc2cccnc2)c2ccccc2c1=O`, for which the survival is inactive: 82%.

As to `COc1cc(NC(=O)N2CCN(c3cc(-c4noc(C)n4)ccc3C)CC2)cc(OC)c1OC`, the survival is active: 14%.

With `COc1ccc2c(c1)c1c(c(=O)n(CCc3ccccc3)c(=O)n1Cc1ccc(Cl)cc1)n2C`, the survival was inactive: 63%.

With `Cc1ccc(NC(=O)/C(C#N)=C\c2ccc(Cl)cc2Cl)cc1C`, the survival is inactive: 46%.

For the compound `Cc1ccc(-c2ccc(CCC(=O)O)n2-c2ccc(C(C)C)cc2)cc1`, the survival is inactive: 61%.

`Nc1c(-c2nc(-c3ccccc3)no2)nnn1CC(=O)Nc1ccccc1`: the survival is inactive: 75%.

Regarding `COc1ccccc1CNC(=O)Cn1ncc2c(C)n(Cc3ccccc3Cl)c(C)c2c1=O`, the survival is inactive: 79%.

Take `CCOc1ccccc1NC(=O)N1CCN(S(=O)(=O)c2ccc3c(ccn3C)c2)CC1`: the survival was inactive: 86%.

For `CC(C)c1ccccc1NC(=O)CSc1nnc(COc2ccccc2Cl)o1`, the survival was inactive: 118%.

Consider `CCN(c1ccc(C)cc1)S(=O)(=O)c1nnc(NC(=O)c2cccs2)s1`, for which the survival was inactive: 22%.

As for `O=C(O)CCCN1C(=O)C(=O)/C(=C(/O)c2ccccc2)C1/C=C/c1ccccc1` (configuration not stated), the survival was inactive: 104%.

Take `CCN(CC)CCNC(=O)c1cc2c(=O)[nH]c3ccc(C)cc3c2s1`: the survival is inactive: 125%.

For the compound `Cc1nnc(SCc2ccccc2)n1N`, the survival is inactive: 106%.

`CCN(CC)C(=O)C1=C(C)Nc2nc3ccccc3n2C1c1ccc(Cl)cc1` (configuration not stated): the survival was inactive: 75%.

`CSc1ncc(C(=O)Nc2cccc(Cl)c2C)c(-c2ccccc2)n1`: the survival is inactive: 129%.

On to `Cc1cc(NC(=O)CSc2ncc(C(=O)Nc3ccccc3)c(=O)n2C)no1`, for which the survival is inactive: 93%.

Regarding `O=C(NCc1ccccn1)c1nn(-c2ccccc2Cl)nc1CO`, the survival is inactive: 93%.

For the compound `COc1ccccc1CNC(=O)C(Cc1ccccc1)NS(=O)(=O)c1ccc2c(c1)CCN2C(C)=O` (configuration not stated), the survival is inactive: 68%.

With `Cc1ccccc1NC(=O)c1ccc(CNS(=O)(=O)c2ccc3c(c2)C(C)(C)C(=O)N3C)cc1`, the survival was inactive: 93%.

As for `CCCCOc1ccc(C(=O)NCCc2csc3nc(-c4ccccc4F)nn23)cc1`, the survival was inactive: 82%.
